# From ChEMBL document CHEMBL4888484, “Replenishing the malaria drug discovery pipeline: Screening and hit evaluation of the MMV Hit Generation Library 1 (HGL1) against asexual blood stage Plasmodium falciparum ,using a nano luciferase reporter read-out” (2022)
# Among all 150,000 compounds or so, about 540 (0.36%) showed an effect of 50% or more. The list shows a part of the results.
# Test system: Plasmodium falciparum
# Assay: Primary screen in NF54 nanoGlo assay, in single point, at 2uM, 72h; a lower Z score goes with more inhibition
# Assay type: functional, Erythrocyte
# Settings: timepoint 72 hour
SMILES,% Inhibition,Z score
O=C(NC(c1ccccc1)c1ccccc1)N1CCCCC1,-1%,0.25
CC(C)[C@H](C)n1nccc1NC(=O)c1ccc(-n2cnnc2)nc1,-13%,1.8
CN(C)C(=O)c1cccnc1N1CCC(C(=O)O)(n2ccnc2)CC1,-13%,1.54
COC(=O)c1ccc2c(c1)CC[C@H](NCc1cc(C)n(C)n1)C(=O)N2,-6%,1.24
Cc1c(F)ccc(Cl)c1NC(=O)CC[C@H]1CC[C@@H](C(N)=O)O1,-6%,0.65
C[C@@H](c1cccc(C(F)(F)F)c1)N(C(=O)c1cc[n+]([O-])cc1)C1CC1,-9%,1.13
Cc1cc(=O)c(C(=O)NCc2ccccn2)c(CC2CCCC2)n1C,-10%,1.41
CCOC(=O)C1=C(C(=O)OCC)SC(=C2C(=S)C(C)(C)N(C(=O)Cc3ccccc3)c3ccc(OCC)cc32)S1,5%,-0.55
COc1ccc(CC(=O)N2[C@H](C(=O)NC3CC3)C[C@@H]3OCC[C@@H]32)c(F)c1,4%,-0.57
Cc1cc(O)ncc1NC(=O)Cc1cccc2ccccc12,1%,-0.08
Cc1cc(NC(=O)NCCc2csc(C)n2)no1,-15%,2.87
COC1(C)CC(NC(=O)NCc2cnn(C)c2)C1(C)C (stereo unspecified),-9%,1.22
O[C@@H](Cn1nc(N2CCCC2)sc1=S)c1ccccc1,-21%,2.5
CC1CCC(C(C)C)C(OC(=O)Cn2nnc(C(N)=O)n2)C1 (stereo unspecified),19%,-2.22
O=C(c1c[nH]nc1C1CCCCC1)N1CCC(Oc2cccnc2)CC1,-1%,0.21
Cc1cnn(CCC(=O)N[C@H](C)c2ccc3c(c2)CCO3)c1,7%,-1.03
CC(=O)c1ccc(NC(=O)Cn2c(-c3ccccc3)nc(C)cc2=O)cc1,33%,-0.49
CCn1cc(C(=O)NC(CC2CCCc3ccccc32)C(=O)O)cn1 (stereo unspecified),10%,-1.02
CN(Cc1ccccc1S(N)(=O)=O)C(=O)[C@H]1CCc2cncn2C1,13%,-1.67
O=C(CS(=O)(=O)C1CCCC1)N1CCC[C@@H]1CN1CCCC1,-7%,0.68
COc1cccnc1NC(=O)c1cnn(C)c1,34%,-4.63

SMILES,% Inhibition,Z score
Cc1nc2ccccn2c1CNC(=O)c1noc2c1CC(C)(C)CC2,-8%,1.51
Cc1cc(Oc2nc(N3CCCCC3)nc3c2CN(S(=O)(=O)c2ccc(F)cc2)CC3)ccc1F,-11%,1.51
CCN(CC)C(=O)CN1CCCN(c2ncnc3c2cnn3C)CC1,-7%,0.64
Cc1cc(C)n(CC(=O)N2CC(=O)Nc3cc(F)c(F)cc32)n1,3%,-0.43
Cc1cc(C(F)(F)F)n(C[C@@H](C)CNC(=O)CNC(=O)N(C)C)n1,-11%,1.77
O[C@H](CCN1CCC2(CCCC2)C1)c1ccccc1,-13%,1.8
O=C(CN1CCOC1=O)N1CC[C@@]2(CCCN(CCCc3ccccc3)C2)C1,8%,-1.5
Cc1c(Cl)cnn1Cc1nnc(-c2ccc(C#N)cc2)o1,-1%,0.07
O=C(COc1ccccc1)N1CC[C@H]2[C@H](CCCN2CC2CC=CCC2)C1 (stereo partly specified),-13%,1.75
O=C1Nc2ccc(-c3ccc4c(c3)OCO4)cc2C(=O)N2CC[C@H](NC(=O)N3CCOCC3)[C@@H]12,-14%,2.7
CCOc1ccc([C@H]2NS(=O)(=O)NC2=N)cc1,2%,-0.26
O=C(c1ccccc1)N1CCC[C@@](F)(C(=O)NCc2ccncc2)C1,-14%,1.2
CN1CCC(NC(=O)c2cccc3cc[nH]c23)CC1,-8%,1.06
CC[C@H](C)C(=O)NCC(=O)Nc1ccccc1-n1ccnn1,6%,-0.48
COc1ccc(S(=O)(=O)N2CCOCC2)cc1NC(=O)C1(c2cccc(Cl)c2)CCCCC1,-1%,0.1
Cc1cnc(C(=O)N2CCCN(Cc3ccc(Cl)cc3)CC2)cn1,-1%,0.13
CC(C)C1(CNC(=O)N2CC(=O)N[C@@H](C)C2)CC1,-19%,3.17
Cc1noc2nc(CCC(=O)NCCN3CCCC3)nc(N3CCCCCC3)c12,-6%,0.89
C=CCn1c(-c2ccccc2Cl)cn2cc(C(=O)N3CCN[C@@H](CC)C3)nc2c1=O,-22%,2.56
Cc1csc([C@@H](C)CNC(=O)N2CCCNC(=O)C2)n1,-3%,0.26
COc1ccc(-c2nn(-c3ccccc3C)cc2CNC[C@H]2COCCO2)cc1F,-14%,1.22

SMILES,% Inhibition,Z score
CC1(C)CN(C(=O)c2cccc(N)n2)CCO1,11%,-1.52
Cc1cccc(C(C)(C)NCC(=O)NC(C)C)c1,-7%,0.95
CC(=O)N1CCc2c(NC(=O)NCc3ccccc3CC(C)C)cccc21,-2%,0.29
CC1CN(C(CNCc2cnn(C(C)C)c2)c2cccs2)CCO1 (stereo unspecified),-6%,0.79
COc1ccccc1NC(=O)COc1cccc(-c2noc(COc3ccccc3)n2)c1,6%,-0.74
CN(C)c1cc(NC(=O)CC2=CCCCC2)ncn1,-9%,1.74
COCc1nc([C@@H]2COCCN2C(=O)CC(C)(C)OC)no1,-13%,1.79
COC(=O)c1[nH]c(C)cc1NS(=O)(=O)c1c(F)c(F)cc(F)c1F,26%,-2.99
NC(=O)N1CCC[C@H]1C(=O)NC1CC(=O)N(C2CC2c2ccccc2)C1 (stereo partly specified),31%,-0.76
CC(C)N(C(=O)NC(=O)Nc1ncccn1)S(C)(=O)=O,-43%,5
COCc1ncc(CN2CCOc3c(O)cc(-c4ccc(C)cc4)cc3C2)cn1,-8%,0.94
CN(C)Cc1ccccc1C(=O)N1CCC2(CC1)COC(=O)N2,-3%,0.48
Cc1ccc(-n2nc(C(=O)NCCN3CCOCC3)c(=O)n(Cc3ccc(C(F)(F)F)cc3)c2=O)cc1,-9%,1.16
O=C(Nc1nccs1)c1ncc(-c2ccccc2)o1,0%,-0.03
CC(C)CN(Cc1ccccc1)C[C@H](O)COC(C)(C)C,-12%,2.38
CN(C)c1ncc(Br)cc1C(=O)NCc1cccc(=O)[nH]1,-3%,0.52
COc1ccc(COCC(=O)N2CCC[C@@H]3C[C@@]32C(N)=O)cc1,-1%,0.17
CC(C)C[C@@H]1N[C@H](C(=O)NCc2ccc(F)cc2)Cc2c[nH]c3cccc1c23,2%,-0.24
O=C(c1ccco1)N(Cc1ccc(-c2cc(Cl)ccc2Cl)o1)[C@H]1CCS(=O)(=O)C1,-3%,0.36
CCCn1nccc1S(=O)(=O)NCc1cc(C2CC2)on1,19%,-2.68
Cc1c(CN2C[C@@H](CN(C)CCO)[C@@H](CO)C2)[nH]c2c(Cl)cccc12,-4%,0.51

SMILES,% Inhibition,Z score
O=C1NC2(CCCCC2)C(=O)N1Cc1cc(Cl)c2c(c1)OCCO2,-32%,3.72
O=C(Cc1c(F)cccc1Cl)N1CCN(c2cccc3c2C(=O)N(Cc2ccncc2)C3=O)CC1,8%,-1
Cc1ccc(C)c(-c2n[nH]cc2CN2CCn3nc(C(=O)O)cc3C2)c1,-15%,1.91
Cc1csc(C(C)(C)NC(=O)NCCC2=CCOCC2)n1,-11%,1.51
O=C(Cc1c[nH]c2ccccc12)N[C@H]1CCCNC1=O,-9%,0.86
COCCN1CCC(c2ncnn2Cc2cccc(OC)c2)CC1,-14%,1.91
Cc1cccc([C@@H](C)CNC(=O)N(CC(=O)O)C(C)C)c1,-4%,0.71
C[C@@H](CS(=O)(=O)N(C)C)NCc1cccc(N(C)C)c1,-3%,0.35
O=C(N[C@H]1[C@@H]2COC[C@@H]21)N1CCC(C2CCOC2)C1 (stereo partly specified),-1%,0.2
O=C(COc1ccc(S(=O)(=O)N2CCCC2)cc1)N1CCCCCC1,-8%,1.19
CC1(C)CC(=O)c2c(nc3c(c2-c2ccccc2)C(=O)CC(C)(C)C3)C1,-8%,1.09
CCCNC(=O)c1c(/C=C(/O)c2ccccc2)nc(-c2ccccc2)c(C#N)c1C,-42%,4.96
O=C(NCC1C2COCC12)N1C2CCC1CC1(C2)CC1(F)F (stereo unspecified),-8%,1.25
CCN1c2cc(C)ccc2-n2cccc2C12CCN(S(=O)(=O)c1c(C)noc1C)CC2,4%,-0.58
O=C(c1ccc(Cl)cc1)N1CCCC1C1CCCN(Cc2ccccc2)C1 (stereo unspecified),-5%,0.7
COC(=O)C(OC(=O)C1CCC(=O)NC1)C(C)C (stereo unspecified),2%,-0.33
Cc1ccc2c(c1)CCCN2C(=O)c1sc(C)nc1C,10%,-1.56
CCCc1nc(C(=O)N2CC[C@H](c3ccnc(-c4ccncc4)c3)C2)cs1,-17%,1.73
Cc1cccc(Cn2cnc3c2c(=O)n(C2CC2)c(=O)n3-c2cccc(C)c2)c1,-18%,1.7
CC(C)n1nc(Cc2cccs2)nc1-c1ccc(CO)cc1,-19%,1.72
